From the supplement of paper PMC10126150
Values marked as one replicate rest on one cluster of the flow cell; about a third of the high ones do not repeat.

Test system: ATP
Test: switch fluorescence ratio, 500 uM ATP over buffer (Cy3 cluster intensity, sum of 5 cycles each) (fold (ratio)); higher = stronger signal-on switching upon ATP binding; sequences stand for … in TCGTCGGCAGCGTCAGATGTGTATAAGAGACAGTTTTTTTTTTTTTTTTTTTTTTTTT…TC
Conditions: aptamer strand: ATP DNA aptamer (quencher-CACCTGGGGGAGTATTGCGGAGGAAGG + anchor), 100 nM annealed; ATP concentration: 500 uM; one replicate
Outline: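 Imaging in selection buffer was followed by imaging after 15 min with 500 uM ATP at 22 °C, for Cy3-labelled switching-strand clusters annealed to 100 nM quencher-labelled ATP aptamer on a modified Illumina MiSeq flow-cell. Five of these buffer/ATP cycles ran, separated by NaOH stripping and re-annealing. The fluorescence ratio per cluster is summed target-cycle over summed buffer-cycle Cy3 intensity, averaged per switch-domain sequence; clusters outside 100-1000 RFU were removed.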
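Further: ATP exposure 15 min at 22 °C before imaging.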

Sequence	switch fluorescence ratio
TTCTCGACTT	1
TCTTATAAT	1.01
TCGTGTACTT	0.965
TTCGTCAACT	0.979
TAGATCGATG	0.973
ATCCCCGTG	1.22
CTTTTCCGT	1.06
TAACGTACGC	1.42
CGCGCGCCTG	0.975
CATACCCGGC	1.01
CGTATGACGA	0.994
TACTTTATGA	1.05
GCAACCGGGT	1.02
TAAAGCCGAG	1
CAAGGCGCTC	0.958
CATAATCAAT	0.99
CACGTTTTAG	1.03
CAGGTTCGTT	0.988
TGCGAAAAAT	1.02
GACGAAACTA	1.36
TGGGTCACGG	0.98
TTCAGTTCGC	0.969
ATATAGTACG	1.03

Sequence	switch fluorescence ratio
TCCTTTCGGT	1.01
GCGGTCTTT	0.981
CGCTTACATC	1.19
TTGCCTCG	1.07
CGGTGCGCCC	1.08
GAGTAGCTCA	1.05
GGGCTTGGTG	1.06
TTCGGCCGGA	1.01
GCACACGGGC	0.972
CTTTCTTGGG	1.07
GTTGGACTGA	1
CCGGTGTACG	1.1
TGAGCCACCC	0.966
CTTGCCGACA	1.02
TGCATATCCG	1
GTTATGATTA	1
GTCTATTTGG	1.03
TGAGAGTTGT	1
TACACGACAC	1.81
AGCTCCTTGG	1
GGGGTTCGAT	1.01
GATTGGCGAC	0.917
GCGGTTTTGC	1.03

Sequence	switch fluorescence ratio
ACGTGTCGT	0.968
CTTACGTTTC	1.06
CCAGAAAAAA	1.01
GACCGGCGAG	0.988
CCTGGATAT	1.01
GGTGTTTGTG	1.03
GTGGCGATA	1
TACCTTTCTG	1.18
AGCCAGTCCT	1.12
CTAACTATGC	1.08
CCCTATACTA	1.35
AGCTTTGATC	1.03
GCTGATCGTT	1
AGGTATTGTT	0.989
GGTGGTCTCG	1.28
CCGCTCTAAT	2.08
TGCGTTTCTA	0.969
TCCATTCCT	1.16
GGTACGTCGC	1.01
CGAAGAGAGC	0.939
CATCGTTCAT	0.995
GGTCGAAGG	0.971
GGATTCGGAG	1.03

Sequence	switch fluorescence ratio
TGCCGTAAC	1.51
TAGTAAGAGC	0.967
TATTCGGCTA	0.996
GAGAGATAGG	1.05
TTTTGAACCT	2.06
ACTGCATCAA	0.985
ATATAGCTTA	1.02
CATGCTGGTC	1.05
AGACTGTAGT	1.03
AGCGATGTTA	0.999
GGATGCAATA	2.67
TGGTCCTGGA	0.985
TTTTGACGGG	0.967
AGGAAATCGT	0.964
TACTCAGAGA	1.09
CCTTGACGAG	0.97
GTATCTGTTT	0.964
GGAGCCACGT	1.01
GTGCCTCACC	1.01
ATGCTATGTC	1.02
TTCAAGCTGC	2.22
TTGTGGCTAC	1.01
TTTGCAAAGC	1.07

Sequence	switch fluorescence ratio
ATTGGCCGGG	0.987
CTACTGCCAC	1.35
CGCGTTAGC	0.985
TAGTAAGTAC	1.46
GTCGTTAATG	0.945
GGTAGTGCGA	1
AATCTGGTCG	0.956
AATTAAAGGA	0.998
CCGGTGATGC	1.86
GGCAGAAA	0.983
TCGTGAGACT	1.08
AGGATTAGAA	0.99
CACTGCGGCA	1.04
AGGGGTCCCC	0.993
TGCTGAAGTA	1.03
TCGCCTGGT	0.986
GTTCCATAGT	1.02
TCACCACAGG	1.14
CTTGGTCTGG	0.98
CACTTATGGG	0.963
TGTCCCCAGG	3.22
GCAGAGAGGG	0.991
TTAGACGCAG	1.17

Sequence	switch fluorescence ratio
CTTTGGATGT	0.994
CCGTGTATGA	1.03
CTGGTTAC	1.06
CTGCAGAAGC	1.03
AATATGACGA	0.989
GGTCGCTAAG	0.983
AGACTCGCA	1.12
GTTAGTTAG	1.01
GATGTTTGAA	1.01
TCGCATCGCG	0.968
CGGGTTGCTG	0.994
CGATGGGCA	1.03
AGAGGTCATT	1.02
AAGATGTCA	1.01
GCTAGAGT	0.973
CAATGAATTA	1.03
TGGAATACCC	1.22
AGTAATTTCA	1.03
ATAGGAGAGG	0.989
GTAAGTAAGC	1.31
TGTTTGCTGG	1.22
CAGTGTGGGT	1
GTTTTGTTCT	0.987

Sequence	switch fluorescence ratio
ATTAGAAATT	1.02
GGCATGGTT	1.05
GGGAATGCCA	0.981
AAGTAGCCTT	1.05
GACCGGAAGA	1.09
AGGTGTGGTG	0.879
AATAGTTGGT	0.946
TTATAGGAGA	1.01
CGCATTCCCT	1.93
CTGGCTAACT	1.01
TATCAAAGT	1.03
AACCTAGGGA	1.08
ACAATAGCAT	1.05
GATTGTCGGT	0.977
CAACGAGATT	1
ATCAACCCA	0.986
ACCACCATGG	1.04
TTTGCAGCGA	1.04
ACGATTCGCG	0.924
TCGAAGACGA	1.12
